The text below walks through data of patent US7271245B2, “Methods and compositions for inhibition of metastasis” (The Scripps Research Institute, priority 2004, dated 2007).

In the assay the test system is activated integrin αvβ3. The experiment in a line: Flow cytometry, scFv binding to MDA-MB 435 variants and patient metastatic breast cancer cells. The arrangement: species or system human. The procedure:
FIGS. 1A, 1B, 1C. Patient derived scFvs Bc-12 and Bc-15 recognize tumor cell integrin αvβ3 in a cation and activation dependent manner. Flow cytometric analyses in TBS with or without 1 mM Ca^2+, 1 mM Mg^2+, or 0.2 mM Mn^2+ as indicated. Binding of soluble scFv detected after incubation with anti-Flag M2 murine mAb followed by FITC-anti mouse F(ab′)2. (A) scFv binding to human melanoma cells (M21: αvβ3 plus other αv integrins) (M21-LIIb: αIIbβ3, no αv integrins) or lung adenocarcinoma cells (UCLA-P3: αv integrins, no β3 integrin). (B) scFv binding to M21 melanoma cells. (C) scFv binding to variants of MDA-MB 435 human breast cancer cells that lack (β^3−) or express αvβ3 either in a non-activated (β3WT, ParentCo) or activated form (β3D723R, Bone, Lung, and BMS metastatic cancer cells isolated from breast cancer patient blood).
FIGS. 2A, 2B, 2C, 2D. Translation of scFv DNA sequence analyses. (A) Consensus amino acid sequence (SEQ ID NO: 9) of Bc-12 (SEQ ID NO: 7) and Bc-15 (SEQ ID NO: 8) (specific for activated αvβ3) compared to Bc-20 (specific for αv) (SEQ ID NO: 10). (B) scFv binding to BMS human breast cancer cells by flow cytometry, indicating loss of Bc-12 and Bc-15 binding when CDR-H3 RGD is mutated to RGE (Mut-12 and Mut-15). […] (C) cDNA sequences for scFv Bc-12 (SEQ ID NO: 1) and scFv Bc-15 (SEQ ID NO: 3). The cDNA encoding scFv Bc-12 has an ATCC accession number PTA-6303, date of deposit: Nov. 12, 2004. The cDNA encoding scFv Bc-15 has an ATCC accession number PTA-6304, date of deposit: Nov. 12, 2004. (D) cDNA sequences for scFv Mut-12 (SEQ ID NO: 5) and scFv Mut-15 (SEQ ID NO: 6). scFv Mut-12 is the RGE containing mutant version of scFv Bc-12. scFv Mut-15 is the RGE containing mutant version of scFv Bc-15.
Flow cytometry. scFv binding to human tumor cells was analyzed by flow cytometry, initially with cloned scFv phage and then with purified scFv protein. Per sample, 2×10^5 tumor cells were blocked with goat serum and incubated either with scFv phage (2-5×10^10) (1 h at RT) followed by mouse anti-M13 mAb (Serotec) (30 min on ice) and goat FITC-anti mouse (Pierce) (30 min on ice), or with purified scFv (1.25 to 40 μg/ml, routinely 10 to 15 μg/ml) (45 min on ice), followed by mouse anti-FLAG mAb M2 (Sigma) (30 min on ice) and goat FITC-anti mouse. Binding/washing buffer was TBS with or without divalent cations (1 mM Ca^2+, 1 mM Mg^2+, 0.2 mM Mn^2+). Alternatively, tumor cells were washed in 10 ml of plasma (prepared freshly from human blood anticoagulated with 50 nM D-Phe-D-Pro-D-arginyl chloromethyl ketone, PPACK, Felding-Habermann et al., J. Biol. Chem. 271: 5892-5900, 1996), resuspended in plasma and then incubated sequentially, without washing, with purified scFv (45 min on ice), followed by anti-FLAG M2 (30 min on ice) and FITC-anti mouse (30 min on ice). All samples were counter stained with propidium iodide (PI) and analyzed on a Becton-Dickinson FACScan, with live gate set to exclude PI positive cells.
To test this further, the effects of cation combinations on Bc-12 and Bc-15 binding were examined. […] Smith, Methods Cell Biol. 69: 247-259, 2002; Hughes et al., J. Biol. Chem. 271: 6571-6574, 1996. To confirm that scFv Bc-12 and Bc-15 selectively recognize αvβ3 in its activated form, binding of these antibodies to in vitro generated and in vivo selected variants of the MDA-MB 435 breast cancer cell model was tested. […] In contrast, Bc-12 and Bc-15 were able to bind an MDA-MB 435 variant expressing constitutively activated mutant αvβ3D723R, without exogenous stimulation with Mn^2+. […] Importantly, scFvs Bc-12 and Bc-15 recognized in vivo selected MDA-MB 435 variants from bone and lung metastases, as well as metastatic cells isolated from breast cancer patient blood samples (FIG. 1C). These cells express αvβ3 in a constitutively activated form. Felding-Habermann et al., Proc. Natl. Acad. Sci. U.S.A 98: 1853-1858, 2001; Rolli et al., Proc. Natl. Acad. Sci. U.S.A 100: 9482-9487, 2003.
(In general: A flow cytometer gives signals particle by particle.)

B1: Bc-15: patient derived human scFv antibody against activated αvβ3 with RGD motif in CDR-H3; cDNA ATCC PTA-6304 (protein)
scFv: MAQVQLVQSGAEVKEPGSSVKVSCKASGGTFSSYAIYWVRQAPGQGLEWMGWINPDSGDTNSAQQFQGRVTMTRDTSISTAYMELSRLRSDDTAMYYCARPPRGDGPDYWGQGTLVTVSSGGGGGS[letters of about 100 residues not shown]RGLGGLVDYKDDDDK
Turning to B1, the “binding to MDA-MB 435 variant expressing αvβ3D723R with Mn2+” value (Mn^2+ added) was “further enhanced”. Also, the “binding to MDA-MB 435 variant expressing αvβ3D723R” value (constitutively activated mutant, without Mn^2+) is “able to bind”. For the same molecule, the “binding to β3-negative MDA-MB 435 cells” value (β3− variant) is reported as “failed to bind”.
